Measurements as given in the supplement of paper PMC8728848.
This is one part of the list.

Key:
Test in all cases: glycan array binding signal (z-score within array); higher = stronger binding
Settings in all cases: glycan notation: IUPAC condensed, linker removed
[1] = target: Fuc(a1-2)Gal
Outline: (§1)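 Arrays were curated from the Consortium for Functional Glycomics database, 3228 in total, and kept only where the protein sequence was available. Binding is expressed as a within-array Z-score. This score was averaged across arrays of the same protein sequence at different concentrations or buffers and across linkers, and negative values can be read as non-binding.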

[2] = target: Fuc(a1-2)Gal(b1-3)GalNAc
Outline: as §1

[3] = target: Fuc(a1-2)Gal(b1-3)GalNAc(b1-3)Gal
Outline: as §1

[4] = target: Fuc(a1-2)Gal(b1-3)GalNAc(b1-3)Gal(a1-4)Gal(b1-4)Glc
Outline: as §1

[5] = target: Fuc(a1-2)Gal(b1-3)GalNAc(b1-4)[Neu5Ac(a2-3)]Gal(b1-4)Glc
Outline: as §1

[6] = target: Fuc(a1-2)Gal(b1-3)GlcNAc
Outline: as §1

[7] = target: Fuc(a1-2)Gal(b1-3)GlcNAc(b1-3)Gal(b1-4)Glc
Outline: as §1

[8] = target: Fuc(a1-2)Gal(b1-3)[Fuc(a1-4)]GlcNAc
Outline: as §1

[9] = target: Fuc(a1-2)Gal(b1-4)Glc
Outline: as §1

[10] = target: Fuc(a1-2)Gal(b1-4)GlcNAc
Outline: as §1

[11] = target: Fuc(a1-2)Gal(b1-4)GlcNAc(b1-3)Gal(b1-4)GlcNAc
Outline: as §1

[12] = target: Fuc(a1-2)Gal(b1-4)GlcNAc(b1-3)Gal(b1-4)GlcNAc(b1-3)Gal(b1-4)GlcNAc
Outline: as §1

[13] = target: Fuc(a1-2)Gal(b1-4)[Fuc(a1-3)]GlcNAc
Outline: as §1

[14] = target: Fuc(a1-2)Gal(b1-4)[Fuc(a1-3)]GlcNAc(b1-3)Gal(b1-4)[Fuc(a1-3)]GlcNAc
Outline: as §1

[15] = target: Fuc(a1-2)Gal(b1-4)[Fuc(a1-3)]GlcNAc(b1-3)Gal(b1-4)[Fuc(a1-3)]GlcNAc(b1-3)Gal(b1-4)[Fuc(a1-3)]GlcNAc
Outline: as §1

[16] = target: Fuc(a1-2)GlcNAc
Outline: as §1

[17] = target: Fuc(a1-2)[Gal(a1-3)]Gal
Outline: as §1

[18] = target: Fuc(a1-2)[Gal(a1-3)]Gal(b1-3)GlcNAc
Outline: as §1

[19] = target: Fuc(a1-2)[Gal(a1-3)]Gal(b1-4)Glc
Outline: as §1

[20] = target: Fuc(a1-2)[Gal(a1-3)]Gal(b1-4)GlcNAc
Outline: as §1

[21] = target: Fuc(a1-2)[Gal(a1-3)]Gal(b1-4)[Fuc(a1-3)]GlcNAc
Outline: as §1

[22] = target: Fuc(a1-2)[Gal(a1-4)]Gal(b1-4)GlcNAc
Outline: as §1

[23] = target: Fuc(a1-2)[GalNAc(a1-3)]Gal
Outline: as §1

[24] = target: Fuc(a1-2)[GalNAc(a1-3)]Gal(b1-3)GlcNAc
Outline: as §1

[25] = target: Fuc(a1-2)[GalNAc(a1-3)]Gal(b1-4)Glc
Outline: as §1

[26] = target: Fuc(a1-2)[GalNAc(a1-3)]Gal(b1-4)GlcNAc
Outline: as §1

[27] = target: Fuc(a1-2)[GalNAc(a1-3)]Gal(b1-4)[Fuc(a1-3)]GlcNAc
Outline: as §1

[28] = target: Fuc(a1-2)[GalNAc(a1-4)]Gal(b1-4)GlcNAc
Outline: as §1

[29] = target: Fuc(a1-2)[GalNAc(b1-3)]Gal
Outline: as §1

[30] = target: Fuc(a1-3)GlcNAc
Outline: as §1

[31] = target: Fuc(a1-3)[Gal(b1-4)]GlcNAc
Outline: as §1

[32] = target: Fuc(a1-3)[Gal(b1-4)]GlcNAc(b1-4)Gal(b1-4)[Fuc(a1-3)]GlcNAc
Outline: as §1

[33] = target: Fuc(a1-3)[Gal(b1-4)]GlcNAc(b1-4)Gal(b1-4)[Fuc(a1-3)]GlcNAc(b1-4)Gal(b1-4)[Fuc(a1-3)]GlcNAc
Outline: as §1

[34] = target: Fuc(a1-3)[Gal3S(b1-4)]GlcNAc
Outline: as §1

[35] = target: Fuc(a1-3)[GalNAc(b1-4)]GlcNAc
Outline: as §1

[36] = target: Fuc(a1-4)GlcNAc
Outline: as §1

[37] = target: Fuc(b1-3)GlcNAc
Outline: as §1

[38] = target: Gal(a1-2)Gal
Outline: as §1

[39] = target: Gal(a1-3)Gal
Outline: as §1

[40] = target: Gal(a1-3)Gal(b1-3)GlcNAc
Outline: as §1

[41] = target: Gal(a1-3)Gal(b1-4)Glc
Outline: as §1

[42] = target: Gal(a1-3)Gal(b1-4)GlcNAc
Outline: as §1

[43] = target: Gal(a1-3)Gal(b1-4)[Fuc(a1-3)]GlcNAc
Outline: as §1

[44] = target: Gal(a1-3)GalNAc
Outline: as §1

[45] = target: Gal(a1-3)[Gal(a1-4)]Gal(b1-4)GlcNAc
Outline: as §1

[46] = target: Gal(a1-4)Gal(b1-4)Glc
Outline: as §1

[47] = target: Gal(a1-4)Gal(b1-4)GlcNAc
Outline: as §1

[48] = target: Gal(a1-4)GlcNAc
Outline: as §1

[49] = target: Gal(a1-6)Glc
Outline: as §1

[50] = target: Gal(b1-2)Gal
Outline: as §1

[51] = target: Gal(b1-3)Gal
Outline: as §1

[52] = target: Gal(b1-3)GalNAc
Outline: as §1

[53] = target: Gal(b1-3)GalNAc(b1-3)Gal(a1-4)Gal(b1-4)Glc
Outline: as §1

[54] = target: Gal(b1-3)GalNAc(b1-4)Gal(b1-4)Glc
Outline: as §1

[55] = target: Gal(b1-3)GalNAc(b1-4)[Neu5Ac(a2-3)]Gal(b1-4)Glc
Outline: as §1

[56] = target: Gal(b1-3)GlcNAc
Outline: as §1

[57] = target: Gal(b1-3)GlcNAc(b1-3)Gal(b1-4)Glc
Outline: as §1

[58] = target: Gal(b1-3)GlcNAc(b1-3)Gal(b1-4)GlcNAc
Outline: as §1

[59] = target: Gal(b1-3)[Fuc(a1-4)]GlcNAc
Outline: as §1

[60] = target: Gal(b1-3)[Fuc(a1-4)]GlcNAc(b1-3)Gal(b1-4)GlcNAc
Outline: as §1

[61] = target: Gal(b1-3)[Fuc(a1-4)]GlcNAc(b1-3)Gal(b1-4)[Fuc(a1-3)]GlcNAc
Outline: as §1

[62] = target: Gal(b1-3)[GlcNAc(b1-6)]GalNAc
Outline: as §1

[63] = target: Gal(b1-3)[Neu5Ac(a2-6)]GalNAc
Outline: as §1

[64] = target: Gal(b1-3)[Neu5Ac(a2-6)]GlcNAc(b1-6)Gal(b1-4)Glc
Outline: as §1

[65] = target: Gal(b1-3)[Neu5Ac(b2-6)]GalNAc
Outline: as §1

[66] = target: Gal(b1-4)GalNAc(a1-3)[Fuc(a1-2)]Gal(b1-4)GlcNAc
Outline: as §1

[67] = target: Gal(b1-4)GalNAc(b1-3)[Fuc(a1-2)]Gal(b1-4)GlcNAc
Outline: as §1

[68] = target: Gal(b1-4)Glc
Outline: as §1

[69] = target: Gal(b1-4)Glc6S
Outline: as §1

[70] = target: Gal(b1-4)GlcNAc
Outline: as §1

[71] = target: Gal(b1-4)GlcNAc(b1-2)Man(a1-3)[Gal(b1-4)GlcNAc(b1-2)Man(a1-6)]Man(b1-4)GlcNAc(b1-4)GlcNAc
Outline: as §1

[72] = target: Gal(b1-4)GlcNAc(b1-3)Gal(b1-4)Glc
Outline: as §1

[73] = target: Gal(b1-4)GlcNAc(b1-3)Gal(b1-4)GlcNAc
Outline: as §1

[74] = target: Gal(b1-4)GlcNAc(b1-3)Gal(b1-4)GlcNAc(b1-3)Gal(b1-4)GlcNAc
Outline: as §1

[75] = target: Gal(b1-4)GlcNAc(b1-3)Gal(b1-4)[Fuc(a1-3)]GlcNAc(b1-3)Gal(b1-4)[Fuc(a1-3)]GlcNAc
Outline: as §1

B1: MAL (Maackia amurensis) (protein)
chain: SDELSFTINNFMPNQGDLLFQGVATVSPTGVLQLTSEENGQPLEYSVGRVLYTAPVRIWDSTTGAVASFSTSFTFVVKAARGASDGLAFFLAPPDSQIPSGSVSKYLGLFNNSNSDSSNQIVAVEFDTYFGHSYDPWDPNYRHIGIDVNGIESIKTVQWDWINGGVAFATITYLAPNKTLIASLVYPSNQTSFIVAASVDLKEILPEWVRVGFSAATGAPKAVETHDVRSWSFTSTLEANSPADVDN
glycan array binding signal (z-score) [1]: -0.422
glycan array binding signal (z-score) [2]: -0.341
glycan array binding signal (z-score) [3]: -0.382
glycan array binding signal (z-score) [4]: -0.435
glycan array binding signal (z-score) [5]: -0.271
glycan array binding signal (z-score) [6]: -0.366
glycan array binding signal (z-score) [7]: -0.402
glycan array binding signal (z-score) [8]: -0.38
glycan array binding signal (z-score) [9]: -0.4
glycan array binding signal (z-score) [10]: -0.389
glycan array binding signal (z-score) [11]: -0.171
glycan array binding signal (z-score) [12]: -0.254
glycan array binding signal (z-score) [13]: 0.544
glycan array binding signal (z-score) [14]: -0.41
glycan array binding signal (z-score) [15]: -0.399
glycan array binding signal (z-score) [16]: -0.4
glycan array binding signal (z-score) [17]: -0.422
glycan array binding signal (z-score) [18]: -0.399
glycan array binding signal (z-score) [19]: -0.323
glycan array binding signal (z-score) [20]: -0.419
glycan array binding signal (z-score) [21]: -0.348
glycan array binding signal (z-score) [22]: -0.425
glycan array binding signal (z-score) [23]: -0.405
glycan array binding signal (z-score) [24]: -0.376
glycan array binding signal (z-score) [25]: -0.433
glycan array binding signal (z-score) [26]: -0.228
glycan array binding signal (z-score) [27]: -0.265
glycan array binding signal (z-score) [28]: -0.429
glycan array binding signal (z-score) [29]: -0.422
glycan array binding signal (z-score) [30]: -0.417
glycan array binding signal (z-score) [31]: -0.231
glycan array binding signal (z-score) [32]: -0.413
glycan array binding signal (z-score) [33]: -0.419
glycan array binding signal (z-score) [34]: -0.38
glycan array binding signal (z-score) [35]: 0.242
glycan array binding signal (z-score) [36]: -0.26
glycan array binding signal (z-score) [37]: -0.348
glycan array binding signal (z-score) [38]: -0.396
glycan array binding signal (z-score) [39]: -0.38
glycan array binding signal (z-score) [40]: -0.329
glycan array binding signal (z-score) [41]: -0.239
glycan array binding signal (z-score) [42]: -0.35
glycan array binding signal (z-score) [43]: -0.384
glycan array binding signal (z-score) [44]: -0.323
glycan array binding signal (z-score) [45]: -0.364
glycan array binding signal (z-score) [46]: -0.426
glycan array binding signal (z-score) [47]: -0.408
glycan array binding signal (z-score) [48]: -0.351
glycan array binding signal (z-score) [49]: -0.391
glycan array binding signal (z-score) [50]: -0.398
glycan array binding signal (z-score) [51]: -0.439
glycan array binding signal (z-score) [52]: -0.367
glycan array binding signal (z-score) [53]: -0.287
glycan array binding signal (z-score) [54]: -0.423
glycan array binding signal (z-score) [55]: -0.409
glycan array binding signal (z-score) [56]: -0.345
glycan array binding signal (z-score) [57]: 1.15
glycan array binding signal (z-score) [58]: -0.328
glycan array binding signal (z-score) [59]: -0.289
glycan array binding signal (z-score) [60]: -0.428
glycan array binding signal (z-score) [61]: -0.272
glycan array binding signal (z-score) [62]: -0.393
glycan array binding signal (z-score) [63]: -0.428
glycan array binding signal (z-score) [64]: -0.367
glycan array binding signal (z-score) [65]: -0.395
glycan array binding signal (z-score) [66]: -0.242
glycan array binding signal (z-score) [67]: -0.406
glycan array binding signal (z-score) [68]: -0.34
glycan array binding signal (z-score) [69]: 0.035
glycan array binding signal (z-score) [70]: 0.336
glycan array binding signal (z-score) [71]: 0.969
glycan array binding signal (z-score) [72]: 0.901
glycan array binding signal (z-score) [73]: 0.414
glycan array binding signal (z-score) [74]: -0.021
glycan array binding signal (z-score) [75]: 0.146
